Measured values as given in the supplement of paper PMC9151546.
Most values come without repeats; read them as rough.

Legend:
CHO-K1 [1] = experiment: micronucleus frequency (% of nucleated events); higher = more micronuclei (genotoxic)
CHO-K1 [2] = experiment: relative survival (nuclei to bead ratio vs DMSO control) (% of vehicle control); higher = more surviving cells
Experimental: (§1)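 Flow-cytometric in vitro micronucleus assay (Litron MicroFlow) in CHO-K1 cells in 96-well plates, 19 concentrations (4.5-200 µM, n=1 per concentration). Without S9, cells were exposed for 24 h and sampled at 48 h. With Aroclor 1254-induced rat liver S9, cells were exposed for 3-4 h and sampled at 27-28 h. Read-outs are %MN and %hypodiploid nuclei relative to nucleated events, and relative survival as the nuclei-to-bead ratio versus the 1% DMSO vehicle control (x100).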

CHO-K1 [3] = experiment: hypodiploid nuclei frequency (% of nucleated events); higher = more hypodiploid events (aneugenic)
Experimental: as §1
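For hypodiploid nuclei frequency (% of nucleated events) in this document: hypodiploid nuclei gated on a flow cytometer with 488 nm excitation after SYTOX Green staining, cultures at 37 °C, positive controls vinblastine without S9 and cyclophosphamide with S9.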
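For micronucleus frequency (% of nucleated events) in this document: cells lysed with nuclei stained by SYTOX Green, then micronucleus-gated events counted against nucleated events by flow cytometry with 488 nm excitation.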
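For relative survival (nuclei to bead ratio vs DMSO control) in this document: Lysed-cell nuclei stained with SYTOX Green and counted against counting beads by flow cytometry at 488 nm excitation, with vinblastine (no S9) and cyclophosphamide (plus S9) as positive controls.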

CN(C)c1ccc(N=NS(=O)(=O)O)cc1 [Fenaminosulf]
Conditions | hypodiploid nuclei frequency, CHO-K1 [3] [%] | micronucleus frequency, CHO-K1 [1] [%] | relative survival, CHO-K1 [2]
concentration: 4.5 (µM), S9 metabolic activation: with S9, exposure time: 3-4 hours | 0.48 | 2.48 | 126
concentration: 4.5 (µM), S9 metabolic activation: without S9, exposure time: 24 hours | 0.94 | 1.86 | 108
concentration: 5.63 (µM), S9 metabolic activation: with S9, exposure time: 3-4 hours | 0.42 | 1.9 | 130
concentration: 5.63 (µM), S9 metabolic activation: without S9, exposure time: 24 hours | 0.9 | 1.62 | 97.3
concentration: 7.04 (µM), S9 metabolic activation: with S9, exposure time: 3-4 hours | 0.2 | 1.96 | 140
concentration: 7.04 (µM), S9 metabolic activation: without S9, exposure time: 24 hours | 0.94 | 1.74 | 101
concentration: 8.8 (µM), S9 metabolic activation: with S9, exposure time: 3-4 hours | 0.36 | 1.94 | 132
concentration: 8.8 (µM), S9 metabolic activation: without S9, exposure time: 24 hours | 1.1 | 1.94 | 128
concentration: 11 (µM), S9 metabolic activation: with S9, exposure time: 3-4 hours | 0.3 | 1.92 | 118
concentration: 11 (µM), S9 metabolic activation: without S9, exposure time: 24 hours | 0.9 | 1.8 | 96.9
concentration: 13.7 (µM), S9 metabolic activation: with S9, exposure time: 3-4 hours | 0.4 | 2.02 | 117
concentration: 13.7 (µM), S9 metabolic activation: without S9, exposure time: 24 hours | 1.06 | 1.9 | 96.1
concentration: 17.2 (µM), S9 metabolic activation: with S9, exposure time: 3-4 hours | 0.52 | 1.96 | 135
concentration: 17.2 (µM), S9 metabolic activation: without S9, exposure time: 24 hours | 0.86 | 2.08 | 119
concentration: 21.5 (µM), S9 metabolic activation: with S9, exposure time: 3-4 hours | 0.46 | 1.8 | 119
concentration: 21.5 (µM), S9 metabolic activation: without S9, exposure time: 24 hours | 0.92 | 1.84 | 96.1
concentration: 26.8 (µM), S9 metabolic activation: with S9, exposure time: 3-4 hours | 0.32 | 2.24 | 116
concentration: 26.8 (µM), S9 metabolic activation: without S9, exposure time: 24 hours | 1.02 | 1.98 | 92.1
concentration: 33.6 (µM), S9 metabolic activation: with S9, exposure time: 3-4 hours | 0.3 | 1.58 | 107
concentration: 33.6 (µM), S9 metabolic activation: without S9, exposure time: 24 hours | 1.78 | 3.02 | 91.4
concentration: 41.9 (µM), S9 metabolic activation: with S9, exposure time: 3-4 hours | 0.36 | 2.2 | 120
concentration: 41.9 (µM), S9 metabolic activation: without S9, exposure time: 24 hours | 1.62 | 3.12 | 85.5
concentration: 52.4 (µM), S9 metabolic activation: with S9, exposure time: 3-4 hours | 0.16 | 1.86 | 106
concentration: 52.4 (µM), S9 metabolic activation: without S9, exposure time: 24 hours | 1.62 | 3.52 | 84.8
concentration: 65.5 (µM), S9 metabolic activation: with S9, exposure time: 3-4 hours | 0.44 | 1.76 | 98.2
concentration: 65.5 (µM), S9 metabolic activation: without S9, exposure time: 24 hours | 1.88 | 3.94 | 78.1
concentration: 81.9 (µM), S9 metabolic activation: with S9, exposure time: 3-4 hours | 0.28 | 2.12 | 106
concentration: 81.9 (µM), S9 metabolic activation: without S9, exposure time: 24 hours | 1.84 | 3.64 | 79.2
concentration: 102 (µM), S9 metabolic activation: with S9, exposure time: 3-4 hours | 0.28 | 1.7 | 106
concentration: 102 (µM), S9 metabolic activation: without S9, exposure time: 24 hours | 2 | 4.18 | 76
concentration: 128 (µM), S9 metabolic activation: with S9, exposure time: 3-4 hours | 0.1 | 1.9 | 105
concentration: 128 (µM), S9 metabolic activation: without S9, exposure time: 24 hours | 2.32 | 3.7 | 94.9
concentration: 160 (µM), S9 metabolic activation: with S9, exposure time: 3-4 hours | 0.28 | 1.7 | 103
concentration: 160 (µM), S9 metabolic activation: without S9, exposure time: 24 hours | 2.08 | 4.32 | 84.8
concentration: 200 (µM), S9 metabolic activation: with S9, exposure time: 3-4 hours | 0.14 | 2.12 | 101
concentration: 200 (µM), S9 metabolic activation: without S9, exposure time: 24 hours | 2.54 | 4.84 | 83.9

OC(Cn1cncn1)(Cn1cncn1)c1ccc(F)cc1F [Fluconazole]
Conditions | hypodiploid nuclei frequency, CHO-K1 [3] [%] | micronucleus frequency, CHO-K1 [1] [%] | relative survival, CHO-K1 [2]
concentration: 4.5 (µM), S9 metabolic activation: with S9, exposure time: 3-4 hours | 0.28 | 1.06 | 136
concentration: 4.5 (µM), S9 metabolic activation: without S9, exposure time: 24 hours | 0.66 | 1.44 | 103
concentration: 5.63 (µM), S9 metabolic activation: with S9, exposure time: 3-4 hours | 0.34 | 1.34 | 112
concentration: 5.63 (µM), S9 metabolic activation: without S9, exposure time: 24 hours | 0.66 | 1.7 | 122
concentration: 7.04 (µM), S9 metabolic activation: with S9, exposure time: 3-4 hours | 0.22 | 1.14 | 111
concentration: 7.04 (µM), S9 metabolic activation: without S9, exposure time: 24 hours | 1.1 | 2.7 | 98.9
concentration: 8.8 (µM), S9 metabolic activation: with S9, exposure time: 3-4 hours | 0.3 | 1.14 | 106
concentration: 8.8 (µM), S9 metabolic activation: without S9, exposure time: 24 hours | 0.78 | 1.82 | 85.2
concentration: 11 (µM), S9 metabolic activation: with S9, exposure time: 3-4 hours | 0.2 | 1.2 | 110
concentration: 11 (µM), S9 metabolic activation: without S9, exposure time: 24 hours | 0.82 | 1.86 | 105
concentration: 13.7 (µM), S9 metabolic activation: with S9, exposure time: 3-4 hours | 0.38 | 1.24 | 132
concentration: 13.7 (µM), S9 metabolic activation: without S9, exposure time: 24 hours | 0.82 | 1.78 | 106
concentration: 17.2 (µM), S9 metabolic activation: with S9, exposure time: 3-4 hours | 0.14 | 0.8 | 96.6
concentration: 17.2 (µM), S9 metabolic activation: without S9, exposure time: 24 hours | 0.74 | 1.82 | 111
concentration: 21.5 (µM), S9 metabolic activation: with S9, exposure time: 3-4 hours | 0.36 | 0.98 | 108
concentration: 21.5 (µM), S9 metabolic activation: without S9, exposure time: 24 hours | 0.94 | 1.84 | 85.2
concentration: 26.8 (µM), S9 metabolic activation: with S9, exposure time: 3-4 hours | 0.34 | 1.3 | 138
concentration: 26.8 (µM), S9 metabolic activation: without S9, exposure time: 24 hours | 0.9 | 1.34 | 92.1
concentration: 33.6 (µM), S9 metabolic activation: with S9, exposure time: 3-4 hours | 0.24 | 0.72 | 129
concentration: 33.6 (µM), S9 metabolic activation: without S9, exposure time: 24 hours | 1.02 | 1.06 | 95.6
concentration: 41.9 (µM), S9 metabolic activation: with S9, exposure time: 3-4 hours | 0.2 | 1.22 | 121
concentration: 41.9 (µM), S9 metabolic activation: without S9, exposure time: 24 hours | 0.92 | 1.9 | 76.1
concentration: 52.4 (µM), S9 metabolic activation: with S9, exposure time: 3-4 hours | 0.3 | 1.28 | 120
concentration: 52.4 (µM), S9 metabolic activation: without S9, exposure time: 24 hours | 1.14 | 1.42 | 92.8
concentration: 65.5 (µM), S9 metabolic activation: with S9, exposure time: 3-4 hours | 0.26 | 0.92 | 111
concentration: 65.5 (µM), S9 metabolic activation: without S9, exposure time: 24 hours | 0.6 | 1.5 | 66.5
concentration: 81.9 (µM), S9 metabolic activation: with S9, exposure time: 3-4 hours | 0.12 | 0.56 | 121
concentration: 81.9 (µM), S9 metabolic activation: without S9, exposure time: 24 hours | 1.08 | 1.26 | 71.3
concentration: 102 (µM), S9 metabolic activation: with S9, exposure time: 3-4 hours | 0.2 | 0.86 | 111
concentration: 102 (µM), S9 metabolic activation: without S9, exposure time: 24 hours | 1.1 | 1.36 | 70.6
concentration: 128 (µM), S9 metabolic activation: with S9, exposure time: 3-4 hours | 0.3 | 0.98 | 108
concentration: 128 (µM), S9 metabolic activation: without S9, exposure time: 24 hours | 1.54 | 1.32 | 68.9
concentration: 160 (µM), S9 metabolic activation: with S9, exposure time: 3-4 hours | 0.36 | 1.36 | 117
concentration: 160 (µM), S9 metabolic activation: without S9, exposure time: 24 hours | 1.1 | 1.44 | 68.1
concentration: 200 (µM), S9 metabolic activation: with S9, exposure time: 3-4 hours | 0.32 | 1.72 | 107
concentration: 200 (µM), S9 metabolic activation: without S9, exposure time: 24 hours | 1.42 | 2 | 63.7
